From PMC5741687, “A Novel Role for CSRP1 in a Lebanese Family with Congenital Cardiac Defects” (Frontiers in Genetics, 2017)
These are yes or no findings as the source states them, for the method shown. Binding seen in cells or lysates may run through a third protein. Some binding calls cover weakened binding; strength is not graded here. Where a sequence is shown, tags or fusion partners need not be part of it.

Columns and labels:
Experiment in all cases: co-IP; nuclear extracts (200 ug protein) of HEK293 cells transiently overexpressing both proteins; anti-HA on Dynabeads Protein G, 2 h at RT, washed three times with PBS; blot with anti-Flag, then stripped and probed with anti-HA
HA-tagged GATA4 = HA-tagged GATA4 (UniProt P43694 1-442)
HA-tagged TBX5 = target: T1, HA-tagged TBX5 (UniProt Q99593 1-518)
T1 sequence (looked up): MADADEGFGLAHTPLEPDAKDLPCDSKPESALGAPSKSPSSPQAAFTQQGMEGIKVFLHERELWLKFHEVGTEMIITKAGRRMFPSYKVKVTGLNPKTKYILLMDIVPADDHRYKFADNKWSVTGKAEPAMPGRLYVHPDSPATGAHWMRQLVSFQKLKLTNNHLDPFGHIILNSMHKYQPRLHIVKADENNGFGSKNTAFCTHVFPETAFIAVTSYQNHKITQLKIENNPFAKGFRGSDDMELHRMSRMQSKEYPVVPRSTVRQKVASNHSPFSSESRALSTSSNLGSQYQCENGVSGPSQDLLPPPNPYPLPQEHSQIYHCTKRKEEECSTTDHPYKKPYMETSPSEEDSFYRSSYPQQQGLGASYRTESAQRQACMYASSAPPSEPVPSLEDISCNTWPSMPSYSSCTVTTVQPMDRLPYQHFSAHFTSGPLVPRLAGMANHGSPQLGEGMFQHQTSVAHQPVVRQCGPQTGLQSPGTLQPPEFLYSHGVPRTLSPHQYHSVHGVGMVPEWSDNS

HA-tagged GATA5 = HA-tagged GATA5 (UniProt Q9BWX5)
HA-tagged GATA6 = HA-tagged GATA6 (UniProt Q92908)
[1] = target: T2, HA-tagged p.R311S TRPS1 (human) (UniProt Q9UHF7)
T2 sequence: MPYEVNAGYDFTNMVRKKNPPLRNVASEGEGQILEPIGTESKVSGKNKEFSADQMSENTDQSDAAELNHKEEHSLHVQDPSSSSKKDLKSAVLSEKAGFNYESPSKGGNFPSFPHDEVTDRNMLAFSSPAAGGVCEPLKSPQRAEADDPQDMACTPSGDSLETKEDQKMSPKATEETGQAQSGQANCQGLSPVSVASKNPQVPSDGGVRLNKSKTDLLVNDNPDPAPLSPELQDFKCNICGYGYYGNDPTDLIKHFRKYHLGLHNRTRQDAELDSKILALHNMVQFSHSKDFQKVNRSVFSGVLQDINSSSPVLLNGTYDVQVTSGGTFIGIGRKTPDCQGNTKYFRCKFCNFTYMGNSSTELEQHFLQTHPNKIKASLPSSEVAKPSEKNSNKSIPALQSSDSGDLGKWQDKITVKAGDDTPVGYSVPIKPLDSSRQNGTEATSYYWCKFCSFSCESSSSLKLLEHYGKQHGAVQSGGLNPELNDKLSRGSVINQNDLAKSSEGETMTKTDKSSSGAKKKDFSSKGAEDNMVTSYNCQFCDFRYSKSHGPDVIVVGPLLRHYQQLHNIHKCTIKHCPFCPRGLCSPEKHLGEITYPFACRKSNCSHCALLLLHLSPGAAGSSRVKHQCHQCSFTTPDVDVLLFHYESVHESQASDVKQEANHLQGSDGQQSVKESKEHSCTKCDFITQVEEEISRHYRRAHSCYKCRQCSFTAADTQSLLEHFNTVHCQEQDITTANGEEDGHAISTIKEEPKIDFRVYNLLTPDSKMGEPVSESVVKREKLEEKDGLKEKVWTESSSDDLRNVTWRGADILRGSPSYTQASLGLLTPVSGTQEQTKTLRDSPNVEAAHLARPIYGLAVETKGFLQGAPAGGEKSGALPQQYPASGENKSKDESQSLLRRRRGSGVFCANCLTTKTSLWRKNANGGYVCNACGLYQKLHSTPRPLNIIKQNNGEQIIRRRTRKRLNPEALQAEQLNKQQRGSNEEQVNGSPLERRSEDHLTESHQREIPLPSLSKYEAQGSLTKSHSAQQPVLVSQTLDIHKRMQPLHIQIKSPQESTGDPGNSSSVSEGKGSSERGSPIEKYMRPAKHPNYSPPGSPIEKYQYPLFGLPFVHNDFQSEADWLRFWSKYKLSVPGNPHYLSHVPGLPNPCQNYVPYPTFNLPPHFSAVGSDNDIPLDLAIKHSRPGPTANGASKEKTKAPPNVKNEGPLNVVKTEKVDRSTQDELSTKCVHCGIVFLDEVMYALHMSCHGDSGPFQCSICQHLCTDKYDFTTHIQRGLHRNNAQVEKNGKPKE

[2] = target: T3, HA-tagged serum response factor (SRF) (UniProt P11831)
T3 sequence: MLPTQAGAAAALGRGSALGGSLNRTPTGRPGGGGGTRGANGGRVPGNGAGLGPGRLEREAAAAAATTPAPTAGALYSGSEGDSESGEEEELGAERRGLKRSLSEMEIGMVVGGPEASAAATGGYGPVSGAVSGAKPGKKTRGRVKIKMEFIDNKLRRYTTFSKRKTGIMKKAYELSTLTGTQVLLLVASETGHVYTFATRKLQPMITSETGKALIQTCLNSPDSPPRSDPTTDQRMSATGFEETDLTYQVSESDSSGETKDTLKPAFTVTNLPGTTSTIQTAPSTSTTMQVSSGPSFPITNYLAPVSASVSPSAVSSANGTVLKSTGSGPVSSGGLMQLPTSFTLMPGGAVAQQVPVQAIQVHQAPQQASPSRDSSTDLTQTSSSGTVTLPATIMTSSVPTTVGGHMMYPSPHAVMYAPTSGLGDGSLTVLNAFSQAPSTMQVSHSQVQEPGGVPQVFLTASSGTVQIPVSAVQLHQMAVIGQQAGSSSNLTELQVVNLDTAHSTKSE

[3] = target: T4, HA-tagged wild-type TRPS1 (human) (UniProt Q9UHF7)
T4 sequence: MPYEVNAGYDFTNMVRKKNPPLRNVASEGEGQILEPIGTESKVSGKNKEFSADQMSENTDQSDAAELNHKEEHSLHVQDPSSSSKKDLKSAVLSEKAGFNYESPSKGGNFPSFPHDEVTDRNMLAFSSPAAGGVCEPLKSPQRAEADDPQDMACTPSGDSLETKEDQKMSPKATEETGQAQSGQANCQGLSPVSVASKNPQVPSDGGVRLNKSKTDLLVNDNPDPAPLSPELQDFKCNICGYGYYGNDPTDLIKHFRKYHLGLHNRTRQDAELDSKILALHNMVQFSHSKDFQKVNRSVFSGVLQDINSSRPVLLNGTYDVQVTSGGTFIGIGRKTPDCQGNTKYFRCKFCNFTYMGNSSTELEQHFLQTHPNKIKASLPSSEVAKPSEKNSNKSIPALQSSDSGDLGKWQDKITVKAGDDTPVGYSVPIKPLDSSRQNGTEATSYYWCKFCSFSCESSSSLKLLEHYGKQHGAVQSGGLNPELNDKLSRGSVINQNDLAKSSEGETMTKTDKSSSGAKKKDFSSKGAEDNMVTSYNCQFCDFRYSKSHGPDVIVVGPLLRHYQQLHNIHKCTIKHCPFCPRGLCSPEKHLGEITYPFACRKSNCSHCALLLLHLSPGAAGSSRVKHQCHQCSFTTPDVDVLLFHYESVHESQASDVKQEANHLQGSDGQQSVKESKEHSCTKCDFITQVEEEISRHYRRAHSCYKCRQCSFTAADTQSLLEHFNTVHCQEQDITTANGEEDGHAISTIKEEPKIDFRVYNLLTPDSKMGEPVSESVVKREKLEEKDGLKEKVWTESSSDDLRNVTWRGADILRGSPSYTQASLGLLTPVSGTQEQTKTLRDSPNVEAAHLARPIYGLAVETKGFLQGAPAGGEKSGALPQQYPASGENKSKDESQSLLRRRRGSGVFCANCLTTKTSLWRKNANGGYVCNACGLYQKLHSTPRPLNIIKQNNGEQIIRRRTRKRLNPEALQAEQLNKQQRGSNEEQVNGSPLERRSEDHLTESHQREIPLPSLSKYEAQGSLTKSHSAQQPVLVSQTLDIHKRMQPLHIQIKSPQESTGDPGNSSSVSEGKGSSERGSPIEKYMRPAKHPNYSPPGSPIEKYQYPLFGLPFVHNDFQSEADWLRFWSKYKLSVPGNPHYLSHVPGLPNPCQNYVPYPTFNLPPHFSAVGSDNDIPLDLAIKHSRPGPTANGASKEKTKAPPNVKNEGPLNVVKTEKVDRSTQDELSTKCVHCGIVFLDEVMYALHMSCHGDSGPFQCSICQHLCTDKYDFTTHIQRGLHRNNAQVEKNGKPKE

binding (HA-tagged GATA4): binds | binding (HA-tagged TBX5): binds | binding (HA-tagged GATA5): no binding | binding (HA-tagged GATA6): binds | binding [1]: no binding | binding [2]: binds | binding [3]: binds
B1: Flag-tagged wild type human CSRP1 (natural protein, UniProt P21291 1-193, looked up)
chain: MPNWGGGKKCGVCQKTVYFAEEVQCEGNSFHKSCFLCMVCKKNLDSTTVAVHGEEIYCKSCYGKKYGPKGYGYGQGAGTLSTDKGESLGIKHEEAPGHRPTTNPNASKFAQKIGGSERCPRCSQAVYAAEKVIGAGKSWHKACFRCAKCGKGLESTTLADKDGEIYCKGCYAKNFGPKGFGFGQGAGALVHSE
